# Reference: PubChem BioAssay AID743255 (National Center for Advancing Translational Sciences (NCATS), 2014)
# Out of some 390,000 compounds screened, about 910 (0.23%) were called active. Another 5% or so got no clear call; they are omitted. The call rests on the fitted dose curve; in most records, active means well fitted inhibition curve with a large enough effect; inconclusive means small, poorly fitted or top-dose-only effect; inactive means no such curve, though single readings can be large or run the other way. This is a selection; strong and weak results do not stand in their true shares.
# Molecular target: Ubiquitin carboxyl-terminal hydrolase 1 (Homo sapiens) (UniProt O94782)
# Assay: Inhibitors of USP1/UAF1: Primary Screen; further: nearly all actives have a fitted effect of over 60% in size
# Conditions: recombinant USP1/UAF1, Ub-Rhodamine cleavage fluorescence; activity change, negative = inhibition: at 57.1 µM (top of the series)
# How it was run: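 High-throughput fluorogenic screen: 1nM USP1/UAF1 complex, Ub-Rho substrate 150nM final, 50mM HEPES pH 7.8 with 0.5mM EDTA, 0.1 mg/ml BSA, 1mM TCEP and 0.01% Tween-20.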
# On the % scale 0 is the no-effect control and ±100 the full control effect; potency means the concentration at half of the fitted maximal effect.
# UniProt O94782, sequence (O94782 whole entry, looked up): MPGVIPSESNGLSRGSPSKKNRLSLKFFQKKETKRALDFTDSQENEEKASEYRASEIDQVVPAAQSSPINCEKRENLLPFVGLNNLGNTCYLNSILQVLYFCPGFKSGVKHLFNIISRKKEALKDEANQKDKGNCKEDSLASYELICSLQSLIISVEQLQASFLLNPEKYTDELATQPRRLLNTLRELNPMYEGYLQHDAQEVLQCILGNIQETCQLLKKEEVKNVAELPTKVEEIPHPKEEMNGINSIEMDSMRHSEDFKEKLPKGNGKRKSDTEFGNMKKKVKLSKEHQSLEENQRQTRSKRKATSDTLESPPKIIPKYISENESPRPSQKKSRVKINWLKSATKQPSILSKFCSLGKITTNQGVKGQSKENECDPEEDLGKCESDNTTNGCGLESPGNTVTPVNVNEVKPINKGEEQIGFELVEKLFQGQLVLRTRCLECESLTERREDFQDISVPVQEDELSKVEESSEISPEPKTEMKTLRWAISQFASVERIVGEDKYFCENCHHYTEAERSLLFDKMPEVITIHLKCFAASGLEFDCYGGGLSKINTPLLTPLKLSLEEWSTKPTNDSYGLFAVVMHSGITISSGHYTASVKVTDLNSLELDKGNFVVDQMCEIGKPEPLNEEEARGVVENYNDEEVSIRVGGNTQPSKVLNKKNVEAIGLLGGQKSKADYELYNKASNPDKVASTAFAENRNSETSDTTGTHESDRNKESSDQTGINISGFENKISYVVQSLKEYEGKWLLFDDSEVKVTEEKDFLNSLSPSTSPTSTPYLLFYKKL
Structure (SMILES),"activity change, negative = inhibition",Potency
CCOC(=O)C1=C(CC)OC(N)=C(C#N)C1c1ccc(OC)c(C)c1OC (stereo not drawn),inactive: -8.88%,–
C=CC[C@H](CC(=O)OC(C)(C)C)C(=O)OC[C@H]1CCCN1C(=O)[C@H](CC=C)CC(=O)NCCO,inactive: -17.3%,–
COc1cc(NC(=O)CSc2ccc(-c3ccccn3)nn2)cc(OC)c1,inactive: -22.6%,–
O=C1OC[C@@H]2CCCN2C(=O)[C@H](CC(=O)N(CCO)Cc2ccccc2)C/C=C\CC[C@@H]1Cc1ccc(F)cc1,inactive: -4.81%,–
CC1CCCN(c2nc3ccccc3nc2C(C#N)S(=O)(=O)c2cccs2)C1 (stereo not drawn),inactive: 143%,–
C[C@H]1CN([C@@H](C)CO)C(=O)CCCn2nncc2CO[C@H]1CN(C)C(=O)CCC(F)(F)F,inactive: -1.84%,–
O=C(O)c1[nH]c2ccccc2c1C(c1cc(Cl)cc([N+](=O)[O-])c1O)c1c(C(=O)O)[nH]c2ccccc12,–,active: 31.6 µM
C[C@@H]1CN([C@H](C)CO)C(=O)CCCn2nncc2CO[C@@H]1CN(C)C(=O)c1ccccc1,inactive: -13%,–
O=C(C1=C[C@H](c2csc3ccccc23)C[C@H](OCc2ccc(CO)cc2)O1)N1CCN(Cc2ccc3c(c2)OCO3)CC1,inactive: -30%,–
O=C(Nc1ccccc1)c1nc[nH]c1C(=O)O,inactive: 24.9%,–
CN(C)CCNC(=O)c1ccc(-c2nn(C)c(=O)c3ccccc23)cc1,inactive: -1.94%,–
CCOC(=O)CCCCCC(=O)Nc1ccc2c(c1)C(=O)N([C@H](C)CO)C[C@H](C)[C@@H](CN(C)C(=O)Nc1ccccc1)OCCCC[C@@H](C)O2,inactive: 7.44%,–
COC(=O)c1ccc2c(=O)n(CCCCCC(=O)NC(C)C)c(=O)[nH]c2c1,inactive: -14%,–
COc1ccc([C@H]2C[C@H](n3cc(COC(=O)c4ccccc4)nn3)[C@@H](O)CN2C(=O)C2CCCCC2)cc1,inactive: 0.197%,–
C=CC[C@@H](Cc1ccc(F)cc1)C(=O)OC[C@@H]1CCCN1C(=O)[C@@H](CC=C)CC(=O)N(CCO)Cc1ccccc1,inactive: -16.5%,–
CCN(c1cc(C)cc(C)c1)S(=O)(=O)c1nnc(NC(=O)c2ccco2)s1,inactive: -12.8%,–
CC(=C/c1ccccc1)/C=N/NC(=O)c1cccs1,inactive: -3.99%,–
Cc1cc(NC2=CC(=O)C(=O)c3ccccc32)no1,–,active: 2.51 µM
COc1cc(OC)c(NC(=O)CCNS(=O)(=O)c2ccc3c(c2)oc(=O)n3C)cc1Cl,inactive: -2.3%,–
Nc1ccc(-c2c3ccc(=O)cc-3oc3cc(O)ccc23)c(C(=O)O)c1,–,active: 28.2 µM
O=C(O)C1CC(c2cccc(Br)c2)=NO1 (stereo not drawn),inactive: 30.1%,–
O=C(NC1CC1)C1=C[C@@H](c2ccc(C(F)(F)F)cc2)C[C@@H](OCc2ccc(CO)cc2)O1,inactive: -28.6%,–
COc1ccc(CC(=O)Nc2ccccc2C(=O)N2CCOCC2)cc1OC,inactive: 86.1%,–
CCC(CN(C)C)Oc1cc(NCc2ccccc2)c2ncn(C(C)C)c2c1 (stereo not drawn),–,active: 28.2 µM
C[C@H](CO)N1C[C@H](C)[C@H](CN(C)C(=O)c2ccc(N3CCN(C)CC3)cc2)OCc2cnnn2CCCC1=O,inactive: -31.3%,–
N#Cc1c(NC(=O)c2ccccc2Cl)n(Cc2ccccc2)c2nc3ccccc3nc12,–,active: 25.1 µM
Cc1ccccc1N(C)S(=O)(=O)c1nnc(NC(=O)c2ccccc2F)s1,inactive: -26.1%,–

Structure (SMILES),"activity change, negative = inhibition",Potency
N#CC(C(=O)OCc1ccccc1)c1nc2ccccc2nc1N1CCOCC1 (stereo not drawn),inactive: 30.6%,–
O=C(C[C@H]1C/C=C\C[C@H](NC(=O)OCC2c3ccccc3-c3ccccc32)C(=O)OC[C@@H]2CCCN2C1=O)N[C@H](CO)Cc1ccccc1,inactive: -18.4%,–
C=CC[C@@H](Cc1ccc(F)cc1)C(=O)OC[C@@H]1CCCN1C(=O)[C@@H](CC=C)CC(=O)N[C@@H](CO)Cc1ccccc1,inactive: -8.29%,–
O=C(C[C@@H]1C/C=C\C[C@@H](Cc2ccc(F)cc2)C(=O)OC[C@@H](Cc2c[nH]c3ccccc23)NC1=O)NCCO,inactive: 17.4%,–
O=C(O)C1=CCC=CC1C(=O)O (stereo not drawn),inactive: 35.2%,–
COC(C[C@@H]1O[C@@H]1[C@H](O)[C@@H](C)OCc1ccccc1)OC,inactive: -21.1%,–
CCOc1ccc(OCC)c(NS(=O)(=O)c2ccc3c(c2)CCN3C(=O)C2CCC2)c1,inactive: -12.2%,–
COC(=O)C1=C(C(=O)OC)[C@]2([C@H]3CC=CCN[C@@H](Cc4ccccc4)C(=O)N3Cc3ccccc3)C=C[C@H]1O2,inactive: -25.7%,–
C[C@@H]1CN([C@H](C)CO)C(=O)CCCn2nncc2CO[C@H]1CN(C)Cc1ccc(Oc2ccccc2)cc1,inactive: -22.1%,–
Cc1cccc(S(=O)(=O)N(C)C[C@@H]2OCc3cnnn3CCCC(=O)N([C@H](C)CO)C[C@@H]2C)c1,inactive: 8.06%,–
CC(NC1=CC(=O)c2cccnc2C1=O)C(O)c1ccccc1 (stereo not drawn),–,active: 5.62 µM
COCCN1C(=O)/C(=C/c2ccc(N3CCCC3)cc2)SC1=S,–,active: 5.01 µM
Cc1nn(C)c(C)c1N1C(=O)c2cccc3c(N)ccc(c23)C1=O,–,active: 25.1 µM
Cn1cccc1/C=C1\SC(=S)N(CC(=O)O)C1=O,inactive: -18.6%,–
Cc1ccc(S(=O)(=O)c2nc(-c3ccco3)oc2SC(C)C)cc1,inactive: -4.16%,–
N#Cc1c(NC(=O)c2ccc(Br)o2)n(-c2ccccc2)c2nc3ccccc3nc12,–,active: 6.31 µM
COC(=O)C1C(O)CCC2CN3CCc4c([nH]c5ccccc45)C3CC21 (stereo not drawn),inactive: -11.1%,–
Cc1ccc(Nc2nc(Nc3ccc(C)c(C)c3)nc(N3CCOCC3)n2)cc1C,inactive: 25.5%,–
C=CCC[C@H](Cc1ccc(F)cc1)C(=O)OC[C@H](Cc1c[nH]c2ccccc12)NC(=O)[C@H](CC=C)CC(=O)NCCO,inactive: -19%,–
Cc1ccc(S(=O)c2ccc([N+](=O)[O-])c3nonc23)cc1 (stereo not drawn),–,active: 15.8 µM
C[C@H]1NC(=O)[C@]2(C)[C@@H](c3ccccc3)[C@H]3COc4ccccc4[C@H]3N2C1=O,inactive: -0.914%,–
COc1ccc(-n2c(/C=C/c3cc(OC)c(OC)cc3OC)nc3cc4ccccc4cc3c2=O)cc1Cl,inactive: 77.7%,–
COc1ccc(/C=C/c2nc(C#N)c(NC3CCCCC3)o2)cc1OC,inactive: -5.61%,–
CCOC(=O)[C@H]1[C@H]2COc3cc(OC)ccc3[C@@H]2N2C(=O)N(c3ccc(Br)cc3)C(=O)[C@@]12C,inactive: -9.27%,–
O=C1OC[C@@H]2CCCN2C(=O)[C@H](CC(=O)N(CCO)Cc2ccccc2)C/C=C\CC[C@H]1Cc1ccc(F)cc1,inactive: -15.5%,–
C=CC[C@@H](CC(=O)N[C@@H](CO)Cc1ccccc1)C(=O)N[C@@H](COC(=O)[C@H](CC=C)CC(=O)OC(C)(C)C)Cc1c[nH]c2ccccc12,inactive: -25.3%,–
